# Results: PubChem BioAssay (NCATS)
# Inconclusive results, whose numbers are uncertain, are shown with a selection of clear calls. No potency is given beside an inconclusive call; the fits are too rough. For some assays here: “Side channel” marks fits to a control or component signal instead of the main read-out. Active and inactive are the calls of the source. Unless noted, the call rests on the fitted dose curve; in most records, active means well fitted curve in the direction sought with a large enough effect; inconclusive means small, poorly fitted or top-dose-only effect, or another doubt; inactive means no such curve, though single readings can be large; an effect the other way counts as inactive or inconclusive. Where a SMILES comes first, the peptide text is derived from it. [ ]: non-standard residue; d: D form. The star is where a group is joined. Nva = CCC[C@H](N)C(=O)O; Cbz = O=C(OCc1ccccc1)*
# Tested on: not listed separately
# Test: NS1 protein of Zika virus - qHTS assay to identify small molecule inhibitors in human HEK 293 cells (AID 1347053); further: nearly all actives have a fitted effect of over 55% in size;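 on activity change, negative = inhibition: plate controls were infected untreated cells for no effect and uninfected cells for full effect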
# Conditions: HEK293 ZIKV MR766 infection, NS1 TR-FRET, 24 h; series mostly up to 46.1 µM; activity change, negative = inhibition: at the top concentration
# How it was run: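 Read-out is a two-antibody TR-FRET for ZIKV NS1, normalized between uninfected cells and infected cells. Compound added 1 h before MR766 infection at MOI 0.5; human HEK 293 cells incubated 24 h, 37 C.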
# Potency means the concentration at half of the fitted maximal effect; tags describe the fitted curve by direction and shape.
Structure (SMILES),Potency,"activity change, negative = inhibition"
C=CC(=O)Nc1cc(NC(=O)c2ccc(C)c(NC(=O)c3ccno3)c2)cc(C(F)(F)F)c1,"inconclusive [inhibitor, single point]",
C[C@H](O)[C@@H]1C(=O)N2C(C(=O)O)=C(S[C@@H]3CN[C@H](CNS(N)(=O)=O)C3)[C@@H](C)[C@@H]12,,inactive: 0.154%
C=CCc1cccc(C=NNC(=O)CN2CCN(Cc3ccccc3)CC2)c1O,active: 13.2 µM,
O=c1c(O)c(-c2ccc(O)cc2O)oc2cc(O)cc(O)c12,inactive,
CC(C)C[C@H](NC(=O)[C@@H](NC(=O)c1cccc(-c2ccccc2)n1)[C@@H](C)O)B(O)O,active: 0.132 µM,
c1cc(N[C@@H]2CCNC2)nc(-c2cnc3ccc(-c4cn[nH]c4)cn23)c1,"inconclusive [inhibitor, single point]",
CCC[C@@H](C=O)NC(=O)[C@H](CC(C)C)NC(=O)[C@H](CC(C)C)NC(=O)OCc1ccccc1 (Cbz-Leu-Leu-[Nva]-aldehyde),active: 3.32 µM,
c1ccc(-c2oc3ncnc(NC[C@@H]4CCCO4)c3c2-c2ccccc2)cc1,"inconclusive [inhibitor, single point]",

# Target: T1, Tyrosine-protein phosphatase non-receptor type substrate 1 (Homo sapiens) + Leukocyte surface antigen CD47 (Homo sapiens) (UniProt P78324+Q08722)
# Test: CD47-SIRPalpha protein protein interaction - HTRF assay qHTS validation (AID 1347058; active means well fitted curve in the direction sought with a large enough effect in the signal ratio, not every such curve was filed as active; inconclusive means small, poorly fitted or top-dose-only effect, or effect the other way, or a change in a side signal; inactive means no such curve, though single readings can be large or run the other way; the % refers to the signal ratio; on activity change, negative = inhibition: 0% is about no effect)
# Conditions: TR-FRET HTRF CD47-His / biotin-SIRPalpha binding, ratio 665/615; series mostly up to 38.3 µM; activity change, negative = inhibition: at the top concentration
# How it was run: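 Soluble extracellular domains (6His-CD47, Avi-tag-biotinylated SIRPalpha) in PBS pH 7.4 with 0.05% IGEPAL CA-630. Compounds were preincubated 30 min at RT with CD47 and anti-His-Eu, then SIRPalpha and SAV-XL665 were added. TR-FRET 665/615 ratio.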
# T1 sequence (P78324 whole entry, looked up): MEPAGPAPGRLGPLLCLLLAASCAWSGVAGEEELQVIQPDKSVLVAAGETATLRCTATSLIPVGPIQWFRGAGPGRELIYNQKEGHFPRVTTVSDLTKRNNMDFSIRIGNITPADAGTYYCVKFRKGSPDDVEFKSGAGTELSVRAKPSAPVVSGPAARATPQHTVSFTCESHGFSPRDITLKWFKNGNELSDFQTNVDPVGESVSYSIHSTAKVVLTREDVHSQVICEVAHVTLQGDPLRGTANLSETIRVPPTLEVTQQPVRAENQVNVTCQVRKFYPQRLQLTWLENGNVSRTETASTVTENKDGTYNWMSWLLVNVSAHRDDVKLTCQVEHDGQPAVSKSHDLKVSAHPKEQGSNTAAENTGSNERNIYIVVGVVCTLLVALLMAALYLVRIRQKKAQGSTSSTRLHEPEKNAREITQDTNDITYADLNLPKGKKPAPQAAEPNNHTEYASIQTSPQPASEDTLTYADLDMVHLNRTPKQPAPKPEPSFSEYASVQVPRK
# T1 sequence (Q08722 whole entry, looked up): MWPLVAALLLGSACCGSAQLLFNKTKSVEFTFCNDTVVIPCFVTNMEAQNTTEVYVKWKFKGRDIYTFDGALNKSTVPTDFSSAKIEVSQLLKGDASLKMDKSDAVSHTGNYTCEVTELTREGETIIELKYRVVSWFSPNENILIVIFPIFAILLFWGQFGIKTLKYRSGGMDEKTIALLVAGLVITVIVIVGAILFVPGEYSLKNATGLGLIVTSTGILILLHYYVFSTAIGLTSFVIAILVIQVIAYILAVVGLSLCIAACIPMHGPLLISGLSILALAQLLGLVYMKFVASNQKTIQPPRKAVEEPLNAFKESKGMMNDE
Structure (SMILES),"activity change, negative = inhibition",Potency
Cc1cnc(NC(=O)C2=C(O)c3ccccc3S(=O)(=O)N2C)s1,inactive: 0.152%,
C1COC(NC(C2CC2)C2CC2)=N1,inactive: -2.26%,
O=c1c(O)c(-c2ccc(O)cc2O)oc2cc(O)cc(O)c12,,"inconclusive [side channel, falling, partial curve]"
CCN1CCCC1CNC(=O)c1cc(S(=O)(=O)CC)c(N)cc1OC (stereo not given),inactive: 1.15%,
COc1cc2nc(N(C)CCCNC(=O)C3CCCO3)nc(N)c2cc1OC (stereo not given),inactive: 3.08%,
NCCCCNCCCN,inactive: 0.62%,
NC(N)=NC(=O)c1nc(Cl)c(N)nc1N,,"inconclusive [side channel, falling, partial curve]"
NC(=O)c1cnccn1,inactive: 0.281%,
NC(=NCc1ccccc1)NC(=O)c1nc(Cl)c(N)nc1N,,"inconclusive [side channel, falling, partial curve]"

# Target: T1, Tyrosine-protein phosphatase non-receptor type substrate 1 (Homo sapiens) + Leukocyte surface antigen CD47 (Homo sapiens)
# Test: CD47-SIRPalpha protein protein interaction - Alpha assay qHTS validation (AID 1347059);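 further: bead proximity luminescence from CD47 binding SIRPalpha after compound preincubation with SIRPalpha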; on activity change, negative = inhibition: on the % scale 0 is the no-effect control and ±100 the full control effect
# Conditions: AlphaScreen CD47-His/biotin-SIRPalpha binding, LOPAC; series mostly up to 38.3 µM; activity change, negative = inhibition: at the top concentration
# How it was run: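 SIRPalpha-biotin 25 nM + cpd, 30 min RT, dark; add CD47-His 12.5 nM, 30 min; add Ni-NTA/SAV beads 10 ug/mL, 30 min; AlphaScreen. Buffer PBS pH 7.4 + 0.05% IGEPAL CA-630. Non-biotinylated SIRPalpha as control inhibitor.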
Structure (SMILES),Potency,"activity change, negative = inhibition"
CC(=O)N1CCN(c2ccc(OC[C@H]3CO[C@](Cn4ccnc4)(c4ccc(Cl)cc4Cl)O3)cc2)CC1,"inconclusive [inhibitor, partial curve]",
CCC1(C)CC(=O)NC1=O (stereo not given),,inactive: 0.208%
O=c1c(O)c(-c2ccc(O)cc2O)oc2cc(O)cc(O)c12,active: 1.85 µM,
